# Whole data set: some 33,000 sequences, median “E-score (-0.5 to 0.5)” near -0.032, cut for the highest 2% near 0.36. Some of the results follow.
# Target: T1, Sko1 (UniProt Q02100)
# T1 sequence: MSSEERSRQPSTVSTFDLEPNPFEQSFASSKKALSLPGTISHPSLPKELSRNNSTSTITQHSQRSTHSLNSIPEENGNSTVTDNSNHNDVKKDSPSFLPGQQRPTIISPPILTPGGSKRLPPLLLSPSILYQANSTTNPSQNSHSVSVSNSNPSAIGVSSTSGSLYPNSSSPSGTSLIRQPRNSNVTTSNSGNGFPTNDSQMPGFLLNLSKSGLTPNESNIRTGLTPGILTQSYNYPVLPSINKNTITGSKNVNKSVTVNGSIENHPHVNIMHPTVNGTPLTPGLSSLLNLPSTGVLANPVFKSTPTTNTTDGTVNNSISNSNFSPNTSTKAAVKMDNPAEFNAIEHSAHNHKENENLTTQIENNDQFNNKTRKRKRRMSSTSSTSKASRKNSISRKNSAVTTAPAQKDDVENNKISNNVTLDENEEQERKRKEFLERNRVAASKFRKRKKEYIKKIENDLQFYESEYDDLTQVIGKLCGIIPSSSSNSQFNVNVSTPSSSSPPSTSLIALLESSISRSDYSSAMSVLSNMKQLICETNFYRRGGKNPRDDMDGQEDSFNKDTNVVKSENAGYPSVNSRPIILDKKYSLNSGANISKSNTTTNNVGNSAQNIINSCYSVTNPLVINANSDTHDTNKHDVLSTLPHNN
# Test: PBM E-score (8-mer binding enrichment) (E-score (-0.5 to 0.5)); higher = stronger / more preferred TF binding; most listed sequences are background and not binding sites
# Conditions: protein concentration: 200 nM; construct: GST-full length
# Experimental: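 Universal 'all 10-mer' protein binding microarrays (Agilent AMADID 015681) probed with GST-tagged S. cerevisiae TFs (full-length or DBD) made by in vitro transcription/translation (PURExpress), about 100-200 nM. Bound TF was detected with fluorescent anti-GST. Each ungapped 8-mer (which stands for itself and its reverse complement) is scored by the PBM enrichment score (E-score), a modified Wilcoxon-Mann-Whitney statistic from -0.5 to +0.5, computed with the Universal PBM Analysis Suite. Scale: above 0.35 generally sequence-specific binding.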
row,Sequence,PBM E-score
1,ACAGCCTG,-0.138
2,CATGATGG,-0.122
3,AGGTAGCC,-0.298
4,GAAGCAGC,-0.314
5,CATATTGC,0.0177
6,CATCGGCC,-0.156
7,AAGTAGTG,-0.0308
8,ATTGTTGA,0.204
9,ATAACACA,0.214
10,ATGCAAGC,0.0965
11,AGTTAGAC,-0.0303
12,ATAGATCA,0.193
13,GGTAGCAA,-0.06
14,TATCTAGA,-0.0188
15,AGTCAGAA,-0.0299
16,CTGGCAAC,-0.23
17,CCTATCGC,-0.223
18,ATACCTCG,-0.108
19,AAGCGGGC,-0.335
20,AGACGGCA,-0.143
21,ATGGCGCC,-0.219
22,AATCGCGA,0.00152
23,CCGATCCG,-0.19
24,TATGTCAA,0.327
25,CCATAAGC,-0.186

row,Sequence,PBM E-score
1,AAGTCGCA,0.0692
2,GGCAAGGA,-0.167
3,CAGCACTG,-0.114
4,AAGAGAGC,-0.264
5,CCGGTAAA,-0.0691
6,ATAGATAA,0.0957
7,ACTCGACC,-0.391
8,CACTGTAG,0.148
9,GCCACAAC,0.0215
10,CCACAGGC,-0.295
11,AGAGCGCC,-0.206
12,AGTACCGA,-0.168
13,ACGAGCCA,0.0552
14,GATTGACC,-0.0934
15,AGCCATCG,-0.0786
16,GACTGATC,-0.0259
17,AAGCCCGC,-0.124
18,AGTCTAAT,0.144
19,GATTGACA,0.146
20,AGGGTCTG,-0.348
21,AGACATTC,0.0613
22,CCAAAGAA,0.0437
23,CAGACCAG,-0.132
24,CCTGTGCA,-0.175
25,ATAACTTA,0.168

row,Sequence,PBM E-score
1,GAGTTGTA,0.0312
2,CCCCGCCG,-0.311
3,AGTGGAAT,0.0217
4,CGACTGAG,-0.15
5,CATTAACA,0.147
6,CCTAACGC,0.0788
7,CATCAGTA,0.137
8,AGCTGAAT,-0.0471
9,AACCGAGG,-0.314
10,CGTTCCTC,-0.101
11,CACTGTTA,-0.117
12,ACCGCTGC,-0.353
13,CATTGTAA,0.0854
14,AACCGCAG,-0.293
15,CATCATGA,0.339
16,ACGACTCC,-0.0992
17,ACAGCTGC,-0.191
18,ATAACCTG,-0.0605
19,ATGATTGA,0.158
20,ACCACACA,0.0483
21,CTGACCTA,0.103
22,GGAGGGCC,-0.22
23,ATATGGTC,0.136
24,CCACGCAC,0.153
25,CTCGCTTA,-0.13

row,Sequence,PBM E-score
1,ATCTGCCA,-0.0682
2,AAATTGTT,0.0907
3,TGACAACA,0.26
4,ACTAGGCC,-0.352
5,AGAGGTGG,-0.133
6,AGTAAAGG,0.0536
7,CACGCGAG,0.0242
8,GAGCAGAC,-0.0861
9,CACATGCC,-0.0143
10,CTTGGGGA,-0.164
11,ACTCGCAT,0.15
12,CCGTAAGG,-0.15
13,GTTAGATA,0.147
14,GGAACCTA,-0.111
15,CGCCTACG,0.178
16,ACTGAATG,0.0356
17,ATGAACGA,0.204
18,TGACCAAA,0.0718
19,AATAATCT,0.125
20,ATTAGGCG,0.128
21,ATGACATC,0.44
22,CCCTAGGG,-0.314
23,CACCTCAA,-0.00438
24,TTCAGGAA,0.00982
25,CTTGCCAA,-0.00384

row,Sequence,PBM E-score
1,AAAGACCA,-0.183
2,GGTGACGA,0.422
3,CAGCTCCC,-0.212
4,GAACCTCC,-0.255
5,ATTAAACA,0.0803
6,AATATCTA,0.0627
7,CATCGATA,0.0761
8,CGCCGACG,-0.0533
9,ACACCCCC,-0.319
10,GGCGCCAC,-0.138
11,CAGCTTCC,-0.133
12,GTGGGAAC,-0.143
13,AAAGTAAG,0.0864
14,CATCGGGC,-0.0815
15,TGGATACA,-0.00217
16,GCCAGCAA,-0.205
17,CCCGTTGA,-0.034
18,GGCGGACC,-0.321
19,CTAAACAC,0.195
20,ACGACTAA,-0.0201
21,CACCTCAG,-0.162
22,CGTGAGGC,-0.0837
23,CAAGGCCA,-0.265
24,AGGGATCG,-0.177
25,ACCGCCCT,-0.195

row,Sequence,PBM E-score
1,CAGATTGC,0.0869
2,GGCGGGAA,-0.257
3,CTCATCCC,-0.204
4,ACGACTAT,0.252
5,ATTTAGTC,0.127
6,GCCAACTA,-0.112
7,CGAAAAGC,-0.121
8,CCCGTGTC,-0.291
9,CAGAGGAA,-0.229
10,TGTCGTAA,0.412
11,CCATTCGC,-0.158
12,TCCAAGCA,-0.0718
13,CACGGTCG,-0.255
14,TCTAGGCA,-0.147
15,CTGTCTAA,-0.00363
16,GATTCCGC,0.0394
17,CGGTACCG,0.0309
18,ACGGTGGG,-0.192
19,ATCGTAAC,0.241
20,GGCTTTTA,-0.137
21,CGCGAGGA,-0.246
22,ACTTGTAA,0.0218
23,AAATAAGC,0.0995
24,GCTGGTCC,-0.219
25,AATATGTC,0.265

row,Sequence,PBM E-score
1,CGTGGGCC,-0.024
2,AGCAAAAT,0.13
3,CTGGACGA,-0.179
4,CGGAACAA,0.0631
5,AAAACGGC,-0.0452
6,AGTCGGTC,-0.308
7,CGGTCTTA,-0.159
8,AATGTTAC,0.143
9,AGCTTCTC,-0.203
10,GTCACGAA,0.27
11,CGGACAAA,0.0463
12,CACATACC,0.0146
13,GGTGGCGA,-0.0685
14,GAACTTAC,0.165
15,CGATGTGA,0.00099
16,ATACCTGG,-0.252
17,CAGTGAGA,0.0132
18,CGAAGACG,0.00277
19,AACGTTGT,0.268
20,TCCAAACA,-0.0521
21,GACAAGAC,-0.113
22,CGCTTTTC,-0.12
